We go through 22 molecules from PMC12136788.

This is one part of the list.

To fix the notation:
T1: UNK ZnF1-3 (human, UniProt Q9C0B0 31-174)
T1 sequence: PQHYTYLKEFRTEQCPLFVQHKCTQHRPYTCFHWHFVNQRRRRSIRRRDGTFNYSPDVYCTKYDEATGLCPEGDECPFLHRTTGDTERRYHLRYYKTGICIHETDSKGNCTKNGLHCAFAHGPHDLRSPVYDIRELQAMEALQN

B1: chr12:121861850:121861851:+_ENSG00000170633_ENST00000361234|hu_mus|motif|central (ssRNA)
RNA: GGGAGUUCUACAGUCCGACGAUCUAGCAACAAUGUUGAAACUUACAUUCAUUAAAUAUUAGCAUUUAAAAUAUACAUGGCGGAUCGAGUGAACAUUCAGAGCAGUUACGGCUCAGGAUAGUCCACACUACCCAGUCAUGACAGCAACAGAGGAUUGAGCAUCA
B2: chr10:61005217:61005218:+_ENSG00000165443_ENST00000486074|perfect_dup|FALSE|FALSE (ssRNA)
RNA: GGGAGUUCUACAGUCCGACGAUCGUGAUUUCUGCCACGGUGCCCACAGAAAGAUCCACAGGGUCAGUGUAAAUGACUUCUAAAAUGACAUCCUGGGCAUGGUGGUAAACCAGCACCCCAUCUUCUUCUGUACAGGUCAAAAAUCAACAGAGGAUUGAGCAUCA
B3: chr13:48828011:48828012:+_ENSG00000136156_ENST00000607866|hu_mus|FALSE|FALSE (ssRNA)
RNA: GGGAGUUCUACAGUCCGACGAUCAAGAGCAAAAUACUUGUACAGGUACGCCCCUCCGAGGAUGACGCCAGCAAGCAUGAAGGCCAGUCCGAAACACAUGCACCAACACCACGCUCUCCUCUGUCCAACCGGAACCACGUCACCCAACAGAGGAUUGAGCAUCA
B4: chr5:24319680:24319681:-_ENSMUSG00000028945_ENSMUST00000030787|perfect_dup|FALSE|FALSE (ssRNA)
RNA: GGGAGUUCUACAGUCCGACGAUCAAGCUGAAGAUGAUACUCUUGACCAUUUACCGUGAUCAACUUGGUGAACGUGUUCUCUAUGGUUGGAUCGUAGGAAUCAACAAAUUGGCCUUCAACAAACUGAAUUGUCAAUGAGGACUUCAACAGAGGAUUGAGCAUCA
B5: chr12:105536279:105536280:+_ENSG00000136051_ENST00000332180|hu_mus|hu_hu_hu_mus_True|1_38 (ssRNA)
RNA: GGGAGUUCUACAGUCCGACGAUCAGCACUGAACAUGUAAUGUAAUCUGGCUGCAUCGACAGCAUUUUCAUAUACAUCAUCUAAAUAAAUCGGGAAGACAGCUCGAUGCCAGUAUAAAAAACAGCAGUCACACUGUGUUUGGACCAACAGAGGAUUGAGCAUCA
B6: chr10:27411851:27411852:-_ENSG00000136758_ENST00000375972|hu_mus|motif|central (ssRNA)
RNA: GGGAGUUCUACAGUCCGACGAUCCGUCUGCCUUGAAUACGGGUGCAUUGGAGAUUCAAUUCUCUUUCCACCAACAGAAUCGGAUUCAUCGAUGAAUAUAACACAAGGAGCAUUUGCUUUUGCUUCUCUAAAAAGAUUUCUGAUCAACAGAGGAUUGAGCAUCA
B7: chr4:83347727:83347728:-_ENSG00000152795_ENST00000602300|hu_hu|FALSE|FALSE (ssRNA)
RNA: GGGAGUUCUACAGUCCGACGAUCCCCAGUAUAAUCAUAUCCGCCAUAGCCACUAUAGUUUUGAUCACCACCAUAGGCACUAUUGUAAUUUCCAUAUCCUUGAUCAUAAUAGUUAUUAAAUCCUUGGUUCCAGUUUUGGCCCUGCAACAGAGGAUUGAGCAUCA
B8: chr17:45747064:45747065:+_ENSG00000108424_ENST00000290158|hu_mus|FALSE|FALSE (ssRNA)
RNA: GGGAGUUCUACAGUCCGACGAUCGCCCACAGUCCACGCUGUUGUGUCUCGAACAACUACACUGGGGUCUUUCAUUAGUUCUAUUAGGGUGGGCAUAGCCUGUAUGACUAAUGGUUUCAGUUGAUUAGGCUCUGGUCCUUCCAACAACAGAGGAUUGAGCAUCA
B9: chr7:118218646:118218647:-_ENSMUSG00000005610_ENSMUST00000162415|mus_hu|motif|central (ssRNA)
RNA: GGGAGUUCUACAGUCCGACGAUCUUCCUGUUUGAGUAAACUGAUCAAAGAACUUGCUUUUUCUUUAUCUUCAUCGCUUCGGUCGGGUGACAGGAUGAUUACUUUGCUUAACAUCUCAGGAAGAAAGUGUUUAGGAGCCCUCAUCAACAGAGGAUUGAGCAUCA
B10: chr7:7679991:7679992:-_ENSG00000106399_ENST00000396682|hu_hu|hu_hu_hu_mus_False|48_48 (ssRNA)
RNA: GGGAGUUCUACAGUCCGACGAUCUGGGAUGAAUCUUUUCCAGCUUCCCCACGAAGCACACGGGCCGGUCGAUAUACUGUGGUAACAUGCCGGCGUUGACGCGCGCUUUGGGGAGCUGCAUUAUGUCCUCCAUGAUUCUGCCGCCAACAGAGGAUUGAGCAUCA
B11: chr17:72205386:72205387:+_ENSG00000172809_ENST00000584577|hu_hu|FALSE|FALSE (ssRNA)
RNA: GGGAGUUCUACAGUCCGACGAUCGGGCAGGGACUGCUUCAGUUUCUCUGCCUUCUCUUUGUCAGUGAUGACCAGGGUGUAAAGGUAUCUGCUGCAUCGAACUUUAAACUUCACGUUGUCCUUAUUUUUCUUGAUCUUGACAGACAACAGAGGAUUGAGCAUCA
B12: chr4:95690885:95690886:+_ENSMUSG00000028572_ENSMUST00000156910|mus_mus|mus_mus_mus_hu_False|18_98 (ssRNA)
RNA: GGGAGUUCUACAGUCCGACGAUCUUUAGAAAAUGUUAAUGUUAAAUCUAAAAUAUUUUCAAAGGCUUAUUUUAUUUUACCAGAAGUCACAGGCAAGCAGACACUACAAGAAUAUAUAAAUACAAACCUCAACAAUAUAACUGUCAACAGAGGAUUGAGCAUCA
B13: chr1:163117127:163117128:-_ENSG00000143248_ENST00000313961|hu_mus|hu_hu_hu_mus_False|58_78 (ssRNA)
RNA: GGGAGUUCUACAGUCCGACGAUCUGCUACAAAGGAUGUAACUCAACUCACAGGGCAUGAUUUCAUAGCCUGACCAGAUUACUACUUGAUUAGCUCCUUAUAAAAUUCAGAGCGCACAAAGCGGGGCAGAGAAUCCUUCUCCAUCAACAGAGGAUUGAGCAUCA
B14: 29022505_29022625_1578_3pUTR_ENSG00000213639_ENST00000296122|human|control|control (ssRNA)
RNA: GGGAGUUCUACAGUCCGACGAUCUUAAAAAUGUUUAGGGAAAAAAAUUAGAAGUAUUUGCCAUUAUUCUAGUGAAAACAAACAAAAACAAAACAAGCUCAAAAUAAUUAAACAACCAAGCAACACUAAAACCACAUUACACAGCAACAGAGGAUUGAGCAUCA
B15: 31658515_31661186_1340_CDS_ENSG00000163527_ENST00000295770|human|control|control (ssRNA)
RNA: GGGAGUUCUACAGUCCGACGAUCAAUGUGUAUUUUUGCAUACCCAGUAUCCCACAAUGAAUAAAACCUGCCACUCCAUGGUGCAAUGUAACCUGUAUAAGUCAAAUAGAUGACACUAAGGAACACAGCACCUGCAGCUAGUGACAACAGAGGAUUGAGCAUCA
B16: chr4:120564514:120564515:+_ENSMUSG00000032890_ENSMUST00000071093|mus_mus|motif|central (ssRNA)
RNA: GGGAGUUCUACAGUCCGACGAUCAAAGAAAAAGACAAGACAGAAAAGCAAGUGGAGACCAUAAGACAACAAGGCAGGGACGGAGCAAGGCCCACCAGUGGCCACAUCCCCUAUUUCCACCCCUGGAGAUUCCAUGGGCAAGAACAACAGAGGAUUGAGCAUCA
B17: 6283956_6284076_2007_3pUTR_ENSG00000116237_ENST00000343813|human|control|control (ssRNA)
RNA: GGGAGUUCUACAGUCCGACGAUCGCCAGCGUCUCACCUCUUAAAGCUUCGAUGUGUGACUCAAAGCCAACUUACUCUCCCAAACUUGCAAAACAAACAUACUGACUGAAUCUUAGUUGGGACUAUUUGCAGUAUUUAAGAUUACAACAGAGGAUUGAGCAUCA
B18: chr10:94818082:94818083:+_ENSG00000138190_ENST00000260762|hu_mus|FALSE|FALSE (ssRNA)
RNA: GGGAGUUCUACAGUCCGACGAUCCUACGUGUGCUGGGACAUACCAGUCACCAAGCCUCUGAGCUGUCUCACCACUGUCUCUAUCAGCUUCUGUCUGUCUCGGUCAUUCUUCCGGAACUGGGCGAAUAUGUUAUUCUUCUUGCUCAACAGAGGAUUGAGCAUCA
B19: chr4:54876292:54876293:-_ENSG00000109220_ENST00000263921|perfect_dup|FALSE|FALSE (ssRNA)
RNA: GGGAGUUCUACAGUCCGACGAUCCUAUAAAUAAAGCAAAUGCUAAUCUGGUCGAAAAAUCGGUGUCUUUGGUAAAAAUUCUAUGAGGAUGACAUAUUCCAUCAUGUUGUUCGUUUCACAUUUCCUUUUGCUCAGUCUCCAGUGCAACAGAGGAUUGAGCAUCA
B20: 120802235_120803636_2864_CDS_ENSG00000107581_ENST00000369144|human|control|control (ssRNA)
RNA: GGGAGUUCUACAGUCCGACGAUCUCUUCUAUGAGACCUGUCCUCAUCUCGCCCUUCUCCACGUCUCCACUCCUUCUCUGGCGGGCCUCUUCUCCACUCAGAAUCUGCUUCAGGUCCUUUUCUCCAGGUGCCUUCUGAAUCUCUCAACAGAGGAUUGAGCAUCA
B21: chrX:77160730:77160731:+_ENSG00000131174_ENST00000481445|hu_hu|FALSE|FALSE (ssRNA)
RNA: GGGAGUUCUACAGUCCGACGAUCUUACUGAUUCCUCCAUUCCUUUGGGGUAACUCUGCCAACAGGGGACAGGUUCCAUUCUAUUCCGACUUGUGUUGCUACAUAUGUCCAUGUAACAAUACAGAAAGUGGCUCCACUAGCUAACAACAGAGGAUUGAGCAUCA
B22: chr10:60562040:60562041:-_ENSMUSG00000020097_ENSMUST00000092498|mus_mus|motif|central (ssRNA)
RNA: GGGAGUUCUACAGUCCGACGAUCCCUGUGAUGAACCAGCUGGUAACACCUGGGGUCAGAACAGUGCUGAAGACCACUUCCGGAGGAGGGUGAGGAAGAGCCUGGUGGUCUGGCUCUCCCAGCGAGCAAUGCCCAGGCUGAAUACAACAGAGGAUUGAGCAUCA

In this test the target is T1, UNK ZnF1-3. Description: nsRBNS (natural sequence RNA bind-n-seq); RBNS binding buffer (assumed for nsRBNS): 25 mM Tris pH 7.5, 150 mM KCl, 3 mM MgCl2, 0.01% Triton X-100, 500 ug/ml BSA, 20 U/ml SUPERase-In, 4 C; UNK is unkempt and MSI1 is Musashi-1; names of the RNAs are library labels; protein concentration not given here; high values mean tight binding.
Molecule B1 gave a binding signal of 0.555 enrichment R.
The value for B2 was 0.68 enrichment R.
The value for B3 was 1.49 enrichment R; that for B4 was 0.949 enrichment R.
The value for B5 was 1.96 enrichment R.
As to B6, the binding signal was found to be 1.09 enrichment R.
The value for B7 was 1.07 enrichment R; that for B8 was 0.516 enrichment R.
B9 displayed a binding signal of 0.839 enrichment R.
In turn, B10 gave a binding signal of 0.366 enrichment R.
The value for B11 was 0.473 enrichment R; that for B12 was 2.72 enrichment R.
The value for B13 was 0.921 enrichment R; that for B14 was 2.96 enrichment R; that for B15 was 0.731 enrichment R.
On to B16, for which the binding signal stood at 1.46 enrichment R.
The value for B17 was 0.448 enrichment R.
The value for B18 was 0.589 enrichment R; that for B19 was 1.28 enrichment R.
The value for B20 was 0.45 enrichment R.
With B21, the binding signal is 0.557 enrichment R.
The molecule B22 displayed a binding signal of 1.09 enrichment R.
